The inconclusive results got no clear call from the source; some entries with a clear call stand among them for comparison. For some of these results: Potencies of inconclusive entries are doubtful fits and often do not repeat. The source made the active and inactive calls. Unless noted, calls follow the shape of the dose curve; as a rule, active = well fitted curve in the direction sought with a large enough effect; inconclusive = small, poorly fitted or top-dose-only effect, or another doubt; inactive = no such curve, though single readings can be large; an effect the other way counts as inactive or inconclusive.
Assays:
[1] = Primary qHTS for inhibitors of nuclear receptor binding SET domain protein 2 (NSD2) in an RCH-ACV wild type WT cells (2C) (AID 1645877); conditions: activity change, negative = cell killing: at 44.9 µM (top of the series) unless noted; also: nearly all actives have a fitted effect of over 70% in size; also: potency is read from the fitted curve at half-maximal effect
HaCat = assay: Cytotoxic Profiling of Annotated Libraries Using Quantitative High-Throughput Screening (AID 1296008); conditions: Five cell lines viability, CellTiter-Glo ATP luminescence, 48-72 h; max response: hits give low values; also: nearly all actives have a fitted effect of over 60% in size; also: potency is read from the fitted curve at half-maximal effect
In short: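 Cytotoxicity was measured as CellTiter-Glo ATP luminescence, read after 10 min at room temperature. Compound treatment of the cells lasted 48 or 72 hr at 37 degrees Celsius in a qHTS format.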

SKOV3 = assay: Primary qHTS to identify gynecologic anti-cancer compounds using libraries of approved drugs and bioactive compounds (AID 1345084); conditions: Gynecologic cancer cell panel viability, ATPlite luminescence, 48 h; series mostly up to 57.5 µM; also: nearly all actives have a fitted effect of over 55% in size; also: potency is read from the fitted curve at half-maximal effect
In short: (§1)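 In this quantitative HTS, cell killing is estimated from loss of ATP-dependent luciferase light. Cells see five compound concentrations over a 48 h exposure.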

[2] = test system: Zika virus NS2B-NS3 protease (linked construct); assay: Primary screen NINDS Rhodamine qHTS for Zika virus inhibitors (AID 1347160); also: potency is read from the fitted curve at half-maximal effect; nearly all actives have a fitted effect of over 55% in size
In short: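 Each compound, titrated, sat 15 min with 25 nM linked protease before 1.5 microM Rhodamine110 substrate went in. Fluorescence gain over the next 15 min, in pH 8.0 Tris with Tween 20, gave Hill-fitted curves.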

[3] = Primary redox qHTS assay for identification of artifact compounds. (AID 1845223); also: potency is read from the fitted curve at half-maximal effect
In short: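 Redox-cycling detection via DTT (250 uM final) oxidation coupled to Amplex Red (25 uM)/HRP (250 mU/mL) in HBSS. 15 min preincubation plus 30 min after DTT, room temperature. Ex/Em 525/598 nm; 4-parameter Hill fit against DMSO and 10 uM DA3003.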

PA-1 = assay: Primary qHTS to identify gynecologic anti-cancer compounds using libraries of approved drugs and bioactive compounds (AID 1345084); conditions: Gynecologic cancer cell panel viability, ATPlite luminescence, 48 h; series mostly up to 57.5 µM; also: nearly all actives have a fitted effect of over 55% in size; also: potency is read from the fitted curve at half-maximal effect
In short: as §1

[4] = qHTS of pediatric cancer cell lines to identify multiple opportunities for drug repurposing: Primary screen for RD cells (AID 1347104); also: nearly all actives have a fitted effect of over 55% in size
In short: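 Luminescence from CellTiter-Glo served as readout of metabolically active cells after 48 h compound exposure. Titrations: MIPE 11-point, from 0.78 nM; NPC 8-point, from 0.59 nM (final). Concentration-response curves came straight from the primary screen.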

[5] = biological target: Cytochrome P450 2C9 (Homo sapiens) (UniProt P11712); assay: Cytochrome P450 family 2 subfamily C member 9 (CYP2C9) small molecule antagonists: luciferase biochemical (cell-free) qHTS assay (AID 1645842; active = well fitted curve in the direction sought with a large enough effect in the repeat runs; inconclusive = weak or mixed curves; inactive = no such curve, though single readings can be large; an effect the other way counts as inactive or inconclusive)
In short: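 P450-Glo CYP2C9 system: proluciferin substrate with enzyme in mix containing 0.4% BSA, 10 min at room temperature, then NADPH regeneration solution added and incubated 1 h at 37C. Detection reagent stopped reaction; luminescence read after 20 min as RLU.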

[6] = Primary qHTS for inhibitors of nuclear receptor binding SET domain protein 2 (NSD2) in an isogenic RCH-ACV NSD2 p.E1099K mutant (9B) (AID 1645876); conditions: activity change, negative = viability loss: at 44.9 µM (top of the series) unless noted; also: nearly all actives have a fitted effect of over 70% in size; also: potency is read from the fitted curve at half-maximal effect
[7] = Primary fluorescence-based thiol-reactive (MSTI) qHTS assay for identification of artifact compounds. (AID 1845221);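 also: thiol-reactive compounds lower the probe fluorescence signal; nearly all actives have a fitted effect of over 65% in size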
In short: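 One-hour, room-temperature, dark incubation of compound with 4 uM MSTI in PBS (pH 7.4, 2% DMSO) precedes a fluorescence read at 525 nm excitation, 598 nm emission; Hill-equation fitting yields concentration-response values.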

[8] = Drug repurposing screens with cells derived from glioblastoma tumor samples (AID 1345199); conditions: GBM patient neurospheres viability, ATP luminescence, 48 h; Potency: tumour line A unless noted; series mostly up to 46 µM; also: potency is read from the fitted curve at half-maximal effect; nearly all actives have a fitted effect of over 40% in size
In short: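 Primary testing used CD133+ neurospheres from four GBM patients, seven concentrations, 48 h exposure and ATP-based viability; confirmation added three slower-growing patient lines.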

[9] = P-glycoprotein substrates identified in KB-8-5-11 adenocarcinoma cell line, qHTS therapeutic library screen (AID 1346987); conditions: activity change, negative = cytotoxicity: at 44.5 µM (top of the series); also: potency is read from the fitted curve at half-maximal effect; nearly all actives have a fitted effect of over 65% in size
In short: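 Compounds are pinned in dose-response onto KB-8-5-11 cells (500 cells/well, colchicine-free medium) and left 72 h at 37 degree C. CellTiter-Glo luminescence then yields AC50 values.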

Furin (Homo sapiens) = Furin (Homo sapiens) (UniProt P09958); assay: Furin counterscreen qHTS for Zika virus inhibitors (AID 1347149);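 also: purified recombinant full-length human furin enzyme at 5 nM; fluorescence gain from furin cutting a BOC-RVRR-AMC peptide substrate over 15 min; top concentration of the series differs between compounds; nearly all actives have a fitted effect of over 70% in size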
In short: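 Counterscreen measures cleavage of 2 microM BOC-RVRR-AMC, below its ~15 microM Km, by 5 nM full-length human furin at pH 7.0 after a 15-min compound preincubation. Inhibition derives from the 15-min fluorescence increase at 37C.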

[10] = ZIKV-mCherry secondary qHTS for Zika virus inhibitors (AID 1347158); also: potency is read from the fitted curve at half-maximal effect
In short: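 Percent infection is the share of Hoechst-identified Vero nuclei with mCherry signal above 450 RFU (3 SD over negative controls). Cells were infected with recombinant ZIKV-mCherry at MOI 1 after compound addition and imaged 48–72 h later.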

[11] = Confirmatory screen NINDS Rhodamine qHTS for Zika virus inhibitors (AID 1347161);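 also: purified Zika NS2B-NS3 protease with linked NS2B cofactor domain and Rhodamine110 peptide substrate; nearly all actives have a fitted effect of over 60% in size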
In short: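 Aprotinin served as in-plate control. Conditions: 25 nM linked NS2B-NS3, pH 8.0 Tris buffer, titrated compounds, 15 min preincubation and 15 min reaction with 1.5 microM Rhod110 substrate at room temperature.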

[12] = test system: Zika virus NS2B-NS3 protease (linked); assay: 384 well plate NINDS AMC confirmatory qHTS for Zika virus inhibitors (AID 1347163); also: potency is read from the fitted curve at half-maximal effect; nearly all actives have a fitted effect of over 50% in size
In short: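 Fluorescence at 355/460 nm was read after 25 minutes of cleavage of 30 microM Ac-VKTGKR-AMC at room temperature, in the dark. Before substrate addition, compounds (up to 1 mM final) sat ~15 minutes with 5, 30 or 60 nM linked protease. Signals were normalized to no-enzyme and no-inhibitor wells.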

[13] = test system: Zika virus NS2B-NS3 protease (linked construct); assay: 384 well plate NINDS Rhodamine confirmatory qHTS for Zika virus inhibitors (AID 1347164); also: top concentration of the series differs between compounds; nearly all actives have a fitted effect of over 65% in size
In short: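 Compounds are incubated about 15 minutes with linked protease (5, 30 or 60 nM final). Rhodamine 110-tagged Ac-LKRR substrate (10 microM final) is added and fluorescence measured after 25 minutes.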

[14] = Tertiary RLuc qRT-PCR qHTS assay for Zika virus inhibitors (AID 1347169)
In short: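 Orthogonal cell-based infection assay using recombinant ZIKV-RLuc (Cambodian) in Vero cells; compound added prior to virus at MOI 1-2. Incubation lasts 48-72 hrs at 37 degrees C before live-cell Renilla substrate is added and luminescence measured.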
Tags tell the direction and shape of the fitted curve.

Chain of UniProt P11712 (P11712 whole entry, looked up): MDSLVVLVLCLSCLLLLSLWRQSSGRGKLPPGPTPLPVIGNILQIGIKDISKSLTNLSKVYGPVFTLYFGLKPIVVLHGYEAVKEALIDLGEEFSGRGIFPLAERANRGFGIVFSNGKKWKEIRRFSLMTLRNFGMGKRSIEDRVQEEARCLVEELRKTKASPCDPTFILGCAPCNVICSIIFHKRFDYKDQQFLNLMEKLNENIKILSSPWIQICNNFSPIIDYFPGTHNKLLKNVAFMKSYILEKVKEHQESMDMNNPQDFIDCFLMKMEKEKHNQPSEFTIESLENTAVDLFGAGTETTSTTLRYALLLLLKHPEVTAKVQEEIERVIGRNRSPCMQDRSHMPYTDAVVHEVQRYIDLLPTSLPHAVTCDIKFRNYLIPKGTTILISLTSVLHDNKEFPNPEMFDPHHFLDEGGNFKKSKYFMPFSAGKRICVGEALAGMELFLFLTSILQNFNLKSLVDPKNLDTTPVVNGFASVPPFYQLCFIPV
Chain of UniProt P09958 (P09958 whole entry, looked up): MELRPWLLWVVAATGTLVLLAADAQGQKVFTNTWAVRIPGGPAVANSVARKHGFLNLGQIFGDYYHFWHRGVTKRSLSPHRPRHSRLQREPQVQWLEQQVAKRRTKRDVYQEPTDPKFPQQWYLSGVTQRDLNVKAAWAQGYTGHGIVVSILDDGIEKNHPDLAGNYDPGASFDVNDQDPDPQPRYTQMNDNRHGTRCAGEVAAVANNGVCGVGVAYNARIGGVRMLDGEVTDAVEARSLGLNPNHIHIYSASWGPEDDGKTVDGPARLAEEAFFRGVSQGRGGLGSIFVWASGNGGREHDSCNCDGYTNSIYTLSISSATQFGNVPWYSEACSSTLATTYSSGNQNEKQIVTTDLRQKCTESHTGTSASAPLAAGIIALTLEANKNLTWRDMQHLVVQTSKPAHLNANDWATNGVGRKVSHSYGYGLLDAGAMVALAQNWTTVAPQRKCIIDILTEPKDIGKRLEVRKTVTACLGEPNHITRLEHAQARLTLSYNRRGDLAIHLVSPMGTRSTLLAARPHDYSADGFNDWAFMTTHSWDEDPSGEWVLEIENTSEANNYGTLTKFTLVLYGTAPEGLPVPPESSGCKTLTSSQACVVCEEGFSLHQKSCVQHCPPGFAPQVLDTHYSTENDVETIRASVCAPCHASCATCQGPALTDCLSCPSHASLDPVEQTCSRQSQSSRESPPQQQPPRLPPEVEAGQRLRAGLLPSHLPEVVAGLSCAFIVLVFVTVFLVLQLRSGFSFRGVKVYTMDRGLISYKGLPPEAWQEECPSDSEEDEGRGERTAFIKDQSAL

## CC(C)C(=O)O[C@@H]1[C@@H](O)[C@@H](O[C@H]2O[C@H](CO)[C@@H](O)[C@H](O)[C@H]2O)O[C@H](CO)[C@H]1O
[1]
  Potency: inactive
HaCat
  outcome: inactive
SKOV3
  Potency: inconclusive: 20 µM [rising, single point]

## C/C=C/C=C/C=C/C(=O)O[C@@H]1[C@@H](OC)C2=C(C(=O)N(C(C)C(=O)O)C2)[C@@]2(C)CCCC(C)(C)[C@H]12 (stereo partly specified)
[2]
  Potency: active: 11.2 µM
[3]
  Potency: inconclusive: 7.33 µM [activator, partial curve, poor fit]
HaCat
  outcome: inactive
PA-1
  Potency: inactive

## O=C(O)Cc1ccccc1Oc1ccc(Cl)cc1Cl
[4]
  Potency: inactive
[5]
  Potency: inconclusive: 38.9 µM [inhibitor, single point]
[6]
  Potency: inactive
[7]
  Potency: inactive
HaCat
  Potency: inconclusive: 23.1 µM [inhibitor, partial curve, poor fit]
SKOV3
  Potency: inactive
[8]
  Potency: inconclusive: 35.5 µM [inhibitor, single point]

## C=C1C(=O)OC2/C=C(\C)CC/C=C(\C(=O)O)CC/C=C(\C)CCC12 (stereo unspecified)
[6]
  Potency: inconclusive: 20.1 µM [inhibitor, single point]
[1]
  Potency: inconclusive: 17.9 µM [inhibitor, single point]
[7]
  Potency: inactive
HaCat
  outcome: inactive
PA-1
  Potency: inactive

## CCNC(=O)C1OC(n2cnc3c(N)nc(NCCc4ccc(CCC(=O)O)cc4)nc32)C(O)C1O (stereo unspecified)
HaCat
  Potency: inconclusive: 1.3 µM [inhibitor, full curve, poor fit]
SKOV3
  Potency: inconclusive: 0.316 µM [rising, partial curve, poor fit]

## Nc1ncnc2c([C@@H]3N[C@H](CO)[C@@H](O)[C@H]3O)c[nH]c12
[9]
  Potency: inconclusive: 14.6 µM [inhibitor, partial curve, poor fit]
Furin (Homo sapiens)
  Potency: inactive
[10]
  Potency: inconclusive: 2.82 µM [inhibitor, full curve]
[11]
  Potency: inactive
[12]
  Potency: inconclusive: 282 µM [inhibitor, partial curve]
[13]
  Potency: inactive
[14]
  Potency: inconclusive: 4.66 µM [inhibitor, partial curve]
[1]
  Potency: inconclusive: 25.8 µM [inhibitor, partial curve]
HaCat
  Potency: inconclusive: 25.9 µM [inhibitor, single point]
SKOV3
  Potency: inactive
